Results on 2 molecules are retold here after patent US20210163599A1 (AVACTA LIFE SCIENCES, published 2021).

For this assay, the target named is T1, huPD-L1-Fc (R&D Systems) (human, UniProt Q9NZQ7 in part).
T1 construct: Bought from R&D Systems; also called hPDL1-Fc; human PD-L1 Fc antigen
In words: Biacore, bispecific immobilised on CM5, rhPD-L1-Fc as analyte (binding via AVA04-251). (In general: SPR reads the build-up and loss of mass on a sensor chip optically.)

T1 sequence (Q9NZQ7 19-239 limits assumed): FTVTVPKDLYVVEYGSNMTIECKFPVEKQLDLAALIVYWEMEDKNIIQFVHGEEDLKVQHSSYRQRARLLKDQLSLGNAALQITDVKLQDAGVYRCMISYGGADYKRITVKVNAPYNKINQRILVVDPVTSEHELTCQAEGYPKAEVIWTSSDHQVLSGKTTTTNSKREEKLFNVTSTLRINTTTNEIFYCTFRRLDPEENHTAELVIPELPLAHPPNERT

B1: Bevacizumab-AVA04-251 bispecific antibody, flexible (G4S)3 linker (bispecific antibody, human IgG1, kappa)
heavy: EVQLVESGGGLVQPGGSLRLSCAASGYTFTNYGMNWVRQAPGKGLEWVGWINTYTGEPTYAADFKRRFTFSLDTSKSTAYLQMNSLRAEDTAVYYCAKYPHYYGSSHWYFDVWGQGTLVTVSSASTKGPSVFPLAPSSKSTSGGTAALGCLVKDYFPEPVTVSWNSGALTSGVHTFPAVLQSSGLYSLSSVVTVPSSSLGTQTYICNVNHKPSNTKVDKKV[human IgG1 Fc skipped]GGGSGGGGSGGGGSIPRGLSEAKPATPEIQEIVDKVKPQLEEKTGETYGKLEAVQYKTQVLAREGRQDWVLSTNYYIKVRAGDNKYMHLKVFNGPWVPFPHQQLADRVLTGYQVDKNKDDELTGF
light: DIQMTQSPSSLSASVGDRVTITCSASQDISNYLNWYQQKPGKAPKVLIYFTSSLHSGVPSRFSGSGSGTDFTLTISSLQPEDFATYYCQQYSTVPWTFGQGTKVEIKRTVAAPSVFIFPPSDEQLKSGTASVVCLLNNFYPREAKVQWKVDNALQSGNSQESVTEQDSKDSTYSLSSTLTLSKADYEKHKVYACEVTHQGLSSPVTKSFNRGEC
One may read the Kd as the constant that tells how readily two partners part at equilibrium. Lower therefore signals a tighter complex. In the case of B1, the Kd was 0.313 nM.

B2: Bevacizumab-AVA04-251 bispecific antibody, rigid A(EAAAK)3 linker (bispecific antibody, human IgG1, kappa)
heavy: EVQLVESGGGLVQPGGSLRLSCAASGYTFTNYGMNWVRQAPGKGLEWVGWINTYTGEPTYAADFKRRFTFSLDTSKSTAYLQMNSLRAEDTAVYYCAKYPHYYGSSHWYFDVWGQGTLVTVSS[human IgG1 constant region skipped]AEAAAKEAAAKEAAAKIPRGLSEAKPATPEIQEIVDKVKPQLEEKTGETYGKLEAVQYKTQVLAREGRQDWVLSTNYYIKVRAGDNKYMHLKVFNGPWVPFPHQQLADRVLTGYQVDKNKDDELTGF
light: B1 light
For B2, the Kd was determined as 0.538 nM.
